# Experimental data as given in PubChem BioAssay AID504332 (National Center for Advancing Translational Sciences (NCATS), 2011).
# About 31,000 (8.9%) of roughly 350,000 compounds were called active. Inconclusive means that the source gave no clear call. Such entries were picked first, then a sample of the others. Calls follow the shape of the dose curve; as a rule, active = well fitted inhibition curve with a large enough effect; inconclusive = small, poorly fitted or top-dose-only effect; inactive = no such curve, though single readings can be large or run the other way. Where the call is inconclusive, the potency comes from a doubtful curve fit.
# Target: Histone-lysine N-methyltransferase EHMT2 (Homo sapiens) (UniProt Q96KQ7)
# Experiment: qHTS Assay for Inhibitors of Histone Lysine Methyltransferase G9a; also: nearly all actives have a fitted effect of over 75% in size
# Details: G9a H3K9 monomethylation, AlphaScreen, 2 h; activity, negative = inhibition: at 59 µM (top of the series) unless noted
# Procedure, shortened: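 Signal arises when biotinylated H3K9 peptide, once monomethylated, bridges streptavidin donor and antibody-captured acceptor beads. Enzyme at 20 nM was preincubated 15 min with test compounds; peptide 500 nM and SAM 20 uM then reacted for 2 h.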
# % is scaled to controls: 0 for no effect and ±100 for the full control effect; potency is read from the fitted curve at half-maximal effect; tags tell the direction and shape of the fitted curve.
# Sequence of UniProt Q96KQ7 (Q96KQ7 whole entry, looked up): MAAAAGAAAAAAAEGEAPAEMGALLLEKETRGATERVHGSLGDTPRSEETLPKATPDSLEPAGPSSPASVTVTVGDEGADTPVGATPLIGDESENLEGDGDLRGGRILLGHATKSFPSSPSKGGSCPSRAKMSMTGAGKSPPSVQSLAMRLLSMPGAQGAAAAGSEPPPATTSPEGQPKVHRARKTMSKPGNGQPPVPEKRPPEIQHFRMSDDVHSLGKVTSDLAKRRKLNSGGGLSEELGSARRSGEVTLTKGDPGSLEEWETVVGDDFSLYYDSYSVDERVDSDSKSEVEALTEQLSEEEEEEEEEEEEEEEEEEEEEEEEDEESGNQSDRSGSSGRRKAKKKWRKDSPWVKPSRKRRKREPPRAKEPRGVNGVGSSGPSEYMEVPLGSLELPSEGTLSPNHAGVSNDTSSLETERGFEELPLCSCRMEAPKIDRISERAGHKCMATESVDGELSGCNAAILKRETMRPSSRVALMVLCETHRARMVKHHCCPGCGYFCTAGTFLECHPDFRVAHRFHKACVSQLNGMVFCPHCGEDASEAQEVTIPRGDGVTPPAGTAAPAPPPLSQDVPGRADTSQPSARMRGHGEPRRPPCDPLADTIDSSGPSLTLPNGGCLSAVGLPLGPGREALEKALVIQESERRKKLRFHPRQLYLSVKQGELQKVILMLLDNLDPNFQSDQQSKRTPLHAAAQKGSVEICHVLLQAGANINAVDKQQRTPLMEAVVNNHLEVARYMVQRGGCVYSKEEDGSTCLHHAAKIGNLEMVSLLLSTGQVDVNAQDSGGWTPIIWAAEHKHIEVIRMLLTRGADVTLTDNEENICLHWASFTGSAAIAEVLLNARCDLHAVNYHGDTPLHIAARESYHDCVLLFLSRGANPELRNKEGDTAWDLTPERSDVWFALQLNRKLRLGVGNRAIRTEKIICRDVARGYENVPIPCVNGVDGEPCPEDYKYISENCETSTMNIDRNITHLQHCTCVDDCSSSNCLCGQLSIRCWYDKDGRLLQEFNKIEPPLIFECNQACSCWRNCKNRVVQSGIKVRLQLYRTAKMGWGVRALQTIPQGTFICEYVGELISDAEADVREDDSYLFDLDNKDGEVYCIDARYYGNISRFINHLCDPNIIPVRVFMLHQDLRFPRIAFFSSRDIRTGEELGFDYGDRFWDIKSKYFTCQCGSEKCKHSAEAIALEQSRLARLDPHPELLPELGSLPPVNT
Structure (SMILES),Potency,"activity, negative = inhibition"
CC(C)(C)C1CCC2(CC1)NC(=S)N(c1ccccc1)N2 (stereo not given),active: 7.94 µM,–
COc1ccc(NC(=O)COC(=O)c2ccc(S(=O)(=O)N(C)c3ccccc3OC)cc2)c(OC)c1,"inconclusive: 11.2 µM [inhibitor, partial curve, poor fit]",–
Cc1nc2c(-c3ccc(F)cc3)c(C)nn2c(C)c1CCC(=O)NCCN1CCOCC1,"inconclusive: 100 µM [inhibitor, single point]",–
CCCCCn1c(N)c(-c2nc3ccccc3s2)c2c([N+](=O)[O-])nn(C)c(=O)c21,"inconclusive: 2.82 µM [inhibitor, full curve, poor fit]",–
O=C(O)CCC(=O)N1CCc2cc(S(=O)(=O)N(CCc3ccccc3)Cc3ccccc3)ccc21,"inconclusive: 89.1 µM [inhibitor, single point]",–
O=C(C[n+]1cc(-c2ccc(Cl)cc2)n2c1CCC2)Nc1nc(-c2ccc(F)cc2)cs1,"inconclusive: 50.1 µM [inhibitor, partial curve]",–
CCOC(=O)CSc1cc(C)c(C#N)c2nc3ccccc3n12,"inconclusive: 17.8 µM [inhibitor, partial curve, poor fit]",–
CNC(=S)Nc1cccc([N+](=O)[O-])c1,"inconclusive: 89.1 µM [inhibitor, partial curve, poor fit]",–
Cc1cccc(NC(c2cccc(F)c2)c2ccc3ccc(C)nc3c2O)n1 (stereo not given),"inconclusive: 39.8 µM [inhibitor, single point]",–
N=c1n(CCN2CCCCC2)c2ccccc2n1CC(O)c1ccc(Cl)c(Cl)c1 (stereo not given),active: 17.8 µM,–
OC(COC1CCCCC1)CN1CCCCC1 (stereo not given),active: 7.94 µM,–
CCCC(NS(=O)(=O)c1ccc(Br)cc1)C(=O)O (stereo not given),"inconclusive: 89.1 µM [inhibitor, single point]",–
CCC(C(=O)NC1CCCC1)N(C(=O)c1snc(C(N)=O)c1N)c1ccc(C)cc1C (stereo not given),inactive,–
O=C(CSc1nnc2ccc(-c3cccnc3)nn12)Nc1ccc(F)cc1F,"inconclusive: 79.4 µM [inhibitor, single point]",–
O=C(NCc1ccco1)c1cccc(Nc2nc3ccc(Br)cc3[nH]2)c1,–,inconclusive: -96% [inhibitor]
O=C(CSc1nnc(-c2ccccc2)c(-c2ccccc2)n1)N1CCc2ccccc21,"inconclusive: 8.91 µM [inhibitor, partial curve, poor fit]",–
COc1ccc(Cl)cc1C(=O)NNC(=O)c1csc(N2CCOCC2)n1,–,inactive: 19.6% [at 0.501 µM]
N#CC1=C(N)SC(N)=C(C#N)C1C1CC=CCC1 (stereo not given),–,inconclusive: -86.7% [inhibitor]
CN(CC(=O)Nc1ccc2c(c1)CCC2)CC(=O)Nc1ccccc1Br,inactive,–
c1ccc(-c2cc(-c3ccccc3)c3c(n2)-c2ccccc2OC3)cc1,inactive,–
O=C(NC(=S)Nc1ccccc1O)c1ccc(Cl)cc1Cl,"inconclusive: 44.7 µM [inhibitor, partial curve]",–
NCCNCCNCCN,inactive,–
C[C@H](NC(=O)C1CCN(S(=O)(=O)c2ccccc2)CC1)C(=O)NCc1ccco1,–,inactive: 3.63% [at 0.0925 µM]
CCOc1ccc(CC(=O)NNC(=S)NC2CCCCC2)cc1OCC,inactive,–

Structure (SMILES),Potency,"activity, negative = inhibition"
NC(=O)CSc1nc2ccc(NC(=O)COc3ccccc3)cc2s1,inactive,–
CN(C)c1cc[n+](CC(=O)Nc2c(Cl)cc(Cl)cc2Cl)cc1,"inconclusive: 44.7 µM [inhibitor, partial curve]",–
CCOC(=O)c1c(C)[nH]c(C(=O)COc2ccc3c(c2)OCO3)c1C,"inconclusive: 50.1 µM [inhibitor, partial curve, poor fit]",–
CC(=O)C1=C(c2ccccc2)OC(N)=C(C#N)C1c1ccccc1F (stereo not given),"inconclusive: 17.8 µM [inhibitor, partial curve, poor fit]",–
O=C(c1ccc2c(c1)OCO2)N1CCN(c2ccc(F)cc2)CC1,"inconclusive: 56.2 µM [inhibitor, partial curve, poor fit]",–
CCOc1ccc(N2C(=O)c3cccnc3C2Nc2ccc(C)cc2)cc1 (stereo not given),"inconclusive: 50.1 µM [inhibitor, partial curve, poor fit]",–
Cc1nn(-c2ccccc2)c(C)c1S(=O)(=O)O,active: 44.7 µM,–
Cc1nc(N2CCOCC2)c(C#N)c(C)c1Br,–,inactive: 48.3% [at 12.7 µM]
O=S(=O)(Nc1ccc(F)c(C(F)(F)F)c1)c1ccc(N2CCCCS2(=O)=O)cc1,inactive,–
COc1ccc(CC(=O)Nc2ccc3c(c2)CCC3)cc1S(=O)(=O)N1CCOCC1,"inconclusive: 79.4 µM [inhibitor, single point]",–
COc1cccc(OCC(=O)NNC(=O)c2cnccn2)c1,"inconclusive: 2.51 µM [inhibitor, full curve, poor fit]",–
CCCC(=O)N1CCN(c2ccc([N+](=O)[O-])c(NC(C)c3ccccc3)c2)CC1 (stereo not given),"inconclusive: 31.6 µM [inhibitor, single point]",–
COc1ccc(C2C(=O)N(C3CCC(C)CC3)CC(=O)N2Cc2ccc(C)cc2)cc1OC (stereo not given),inactive,–
O=C(O)c1cc2ccccc2c(N=Nc2cccnc2)c1O,active: 50.1 µM,–
O=C(Nc1cccc(C(F)(F)F)c1)C1CCCN(S(=O)(=O)c2cccc3nsnc23)C1 (stereo not given),inactive,–
Cc1ccccc1OCCC(=O)N1CCN(S(=O)(=O)c2ccc(Br)cc2)CC1,"inconclusive: 50.1 µM [inhibitor, partial curve, poor fit]",–
COC(=O)CCn1[nH]c(=O)c2ccccc2c1=O,"inconclusive: 17.8 µM [inhibitor, partial curve, poor fit]",–
CC(=O)c1cccc(OC(=O)c2cc(S(=O)(=O)N3CCOCC3)ccc2N2CCCC2)c1,inactive,–
Cc1cc2c(ncn2C)c(NS(=O)(=O)c2cc(Cl)ccc2Cl)c1C,active: 8.91 µM,–
COc1ccc(-c2cc(=O)c3c(O)cc(O[C@@H]4OC(COC5OC(C)C(O)C(O)[C@@H]5O)C(O)C(O)C4O)cc3o2)cc1 (stereo not given in full),–,inactive: -2.57% [at 2.33 µM]
O=C(N/N=C/C1CC=CCC1)c1cc2ccccc2cc1O (stereo not given),"inconclusive: 5.62 µM [inhibitor, single point]",–
Brc1ccccc1/C=N/Nc1ccccn1,inactive,–
COc1ncccc1-c1nnn(-c2ccccc2)n1,–,inconclusive: -61.5% [inhibitor]
O=C(Nc1nc2c(s1)CCc1ccccc1-2)c1ccco1,–,inconclusive: -77.8% [inhibitor]

Structure (SMILES),Potency,"activity, negative = inhibition"
Cc1ccc(C(c2nnnn2C2CCCC2)N2CCc3ccccc32)cc1 (stereo not given),"inconclusive: 28.2 µM [inhibitor, single point]",–
COc1ccc(C2c3[nH]c4ccccc4c3C[C@H]3C(=O)N(C)CC(=O)N23)cc1OC (stereo not given in full),inactive,–
COc1ccc(CNC(=O)c2ccc[nH]2)cc1Cl,"inconclusive: 3.55 µM [inhibitor, partial curve, poor fit]",–
COc1nonc1NC(=O)CSc1nc2ccccc2[nH]1,"inconclusive: 100 µM [inhibitor, partial curve, poor fit]",–
CC1CC[C@@]2(OC1)OC1CC3C4CC=C5CC(O)CC[C@@]5(C)C4CC[C@]3(C)C1C2C (stereo not given in full),–,inactive: -20.9% [at 2.33 µM]
COc1ccc(S(=O)(=O)N2CCOCC2)cc1NC(=O)c1cc(C)oc1C,"inconclusive: 39.8 µM [inhibitor, single point]",–
Cc1ccc(SCC(=O)Nc2ccc(-c3nnc(-c4ccco4)o3)cc2)cc1,inactive,–
Nc1ccc(C(=O)N2CCCC2)cc1CS(=O)(=O)c1ccc(Cl)cc1,inactive,–
Nc1sccc1C(=O)c1ccc(Cl)cc1,"inconclusive: 25.1 µM [inhibitor, single point]",–
CC1CC2OC(=O)C3(C)CCCC(C)(C23)C1(O)CCc1ccoc1 (stereo not given),"inconclusive: 89.1 µM [inhibitor, single point]",–
Cc1nc2c(n1O)CCC/C2=N\O,"inconclusive: 70.8 µM [inhibitor, partial curve]",–
COc1ccccc1N1CCN(CCCNC(=O)c2cnn(-c3ccccc3Cl)c2C2CCN(C(=O)OC(C)(C)C)CC2)CC1,"inconclusive: 39.8 µM [inhibitor, partial curve, poor fit]",–
CCN(CC)c1ccc(NC(=O)COc2ccccc2C)cc1S(=O)(=O)Nc1ccccc1OC,active: 10 µM,–
CC(/C=N/Nc1nnc2c(n1)[nH]c1ccccc12)=C\c1ccco1,"inconclusive: 25.1 µM [inhibitor, partial curve, poor fit]",–
CC(=O)Nc1ccc(S(=O)(=O)C(C#N)c2nc3ccccc3nc2NCCO)cc1 (stereo not given),"inconclusive: 56.2 µM [inhibitor, partial curve]",–
Cc1ccc(-n2nc3cc(C)c(N)cc3n2)cc1,active: 1.58 µM,–
Fc1ccc(C(c2nnnn2C2CCCC2)N2CCN(Cc3ccncc3)CC2)cc1 (stereo not given),"inconclusive: 25.1 µM [inhibitor, single point]",–
O=c1[nH]cnc2sc3c(c12)CCN(Cc1ccccc1)C3,"inconclusive: 25.1 µM [inhibitor, single point]",–
N#CCC(=O)Nc1ccc(C(=O)NNC(=S)NC2CC2)cc1,"inconclusive: 89.1 µM [inhibitor, single point]",–
CCOc1cc(N2CCOCC2)c(OCC)cc1NC(=O)COc1ccccc1[N+](=O)[O-],inactive,–
CSC1=NC(C(Cl)(Cl)Cl)N=C(c2ccccc2)N1 (stereo not given),"inconclusive: 56.2 µM [inhibitor, partial curve]",–
CN1CCN(S(=O)(=O)c2ccc(NC(=S)NC(=O)c3ccccc3)cc2)CC1,–,inconclusive: -95.2% [inhibitor]
